# Measurements reported in US4017607A, “9,3",4"-Triacyl ester of the antibiotic SF-837 M1 substance and the production thereof” (Meiji Seika Kaisha, Ltd., priority 1974, dated 1977).
# Test system: gram-negative and gram-positive bacteria
# Test: Antibacterial activity (in words)
# Format: cell-based
structure (smiles),measurement,value
CCC(=O)OC1CC(=O)OC(C)CC=CC=CC(OC(C)=O)C(C)CC(CC=O)C(OC2OC(C)C(OC3CC(C)(OC(=O)CC)C(OC(C)=O)C(C)O3)C(N(C)C)C2OC(C)=O)C1OC (stereo not shown),antibacterial activity,"had an antibacterial activity but lower than that of 9,4""-di-acetyl-3""-propionyl SF-837 M1 substance"
